Data reported in PubChem BioAssay AID258 (DTP/NCI, 2004).
“And” between values parts separate entries of the source, which are not always exact repeats. Equal values may be shown once. This continues a long series; more values of the same kind are listed elsewhere. Inconclusive results and toxic doses are left out.

System: CD2F1 mice, L1210 leukemia sc, survival T/C
Test: NCI In Vivo Anticancer Drug Screen. Data for tumor model L1210 Leukemia (subcutaneous) in CD2F1 (CDF1) mice
Conditions: endpoint: median survival time, higher = longer survival
Method: The antitumor activity of compounds was measured in mice bearing transplantable tumors. Survival or tumor size were measured and the results are expressed as the measurement made in the treated group (T) divided by the measurement made in the vehicle treated control group (C). The tumor model used in this assay is L1210 Leukemia (subcutaneous) in CD2F1 (CDF1) mice

For `CN(Cc1cnc2nc(N)nc(N)c2n1)c1ccc(C(=O)N[C@@H](CCC(=O)O)C(=O)O)cc1`, the T/C (dose: 0.16 mg/kg/injection, schedule: Q#A X Z (sc), vehicle: other) was 218 % of control, the T/C (dose: 0.19 mg/kg/injection, schedule: Q01DX009 (ip), vehicle: sodium bicarbonate) was 97 % of control and the T/C (dose: 0.27 mg/kg/injection, schedule: Q#A X Z (sc), vehicle: other) was 209 % of control. The T/C (dose: 0.37 mg/kg/injection, schedule: Q01DX Z (sc), vehicle: other) was 247 % of control, the T/C (dose: 0.39 mg/kg/injection, schedule: Q01DX Z (ip), vehicle: other) was 220 % of control and the T/C (dose: 0.39 mg/kg/injection, schedule: Q#A X Z (sc), vehicle: other) was 205 % of control. For the same compound, the T/C (dose: 0.42 mg/kg/injection, schedule: Q01DX Z (sc), vehicle: other) was 208 % of control, the T/C (dose: 0.45 mg/kg/injection, schedule: Q01DX Z (sc), vehicle: other) was 204 % of control and 230 % of control and 231 % of control and the T/C (dose: 0.46 mg/kg/injection, schedule: Q01DX Z (sc), vehicle: other) was 227 % of control and 228 % of control. For the same compound, the T/C (dose: 0.5 mg/kg/injection, schedule: Q01DX009 (ip), vehicle: sodium bicarbonate) was 187 % of control, the T/C (dose: 0.5 mg/kg/injection, schedule: Q01DX Z (sc), vehicle: other) was 238 % of control and 266 % of control and the T/C (dose: 0.65 mg/kg/injection, schedule: Q01DX Z (ip), vehicle: other) was 215 % of control and 250 % of control. The T/C (dose: 0.7 mg/kg/injection, schedule: Q01DX Z (sc), vehicle: other) was 200 % of control, the T/C (dose: 0.74 mg/kg/injection, schedule: Q01DX Z (sc), vehicle: other) was 250 % of control and the T/C (dose: 0.75 mg/kg/injection, schedule: Q01DX Z (ip), vehicle: sodium bicarbonate) was 260 % of control. The T/C (dose: 0.75 mg/kg/injection, schedule: Q01DX Z (sc), vehicle: other) was 241 % of control and 250 % of control and 287 % of control, the T/C (dose: 0.76 mg/kg/injection, schedule: Q01DX Z (oral), vehicle: other) was 186 % of control and the T/C (dose: 0.76 mg/kg/injection, schedule: Q01DX Z (sc), vehicle: other) was 245 % of control and 272 % of control. For the same compound, the T/C (dose: 1.0 mg/kg/injection, schedule: Q01DX Z (sc), vehicle: other) was 188 % of control and 233 % of control, the T/C (dose: 1.08 mg/kg/injection, schedule: Q01DX Z (ip), vehicle: other) was 190 % of control and 210 % of control and the T/C (dose: 1.08 mg/kg/injection, schedule: Q01DX Z (iv), vehicle: other) was 240 % of control. The T/C (dose: 1.17 mg/kg/injection, schedule: Q01DX Z (sc), vehicle: other) was 220 % of control, the T/C (dose: 1.24 mg/kg/injection, schedule: Q01DX Z (sc), vehicle: other) was 243 % of control and the T/C (dose: 1.25 mg/kg/injection, schedule: Q01DX Z (sc), vehicle: other) was 220 % of control. The T/C (dose: 1.26 mg/kg/injection, schedule: Q01DX Z (sc), vehicle: other) was 227 % of control, the T/C (dose: 1.5 mg/kg/injection, schedule: Q01DX Z (ip), vehicle: sodium bicarbonate) was 195 % of control and the T/C (dose: 1.5 mg/kg/injection, schedule: Q01DX Z (ip), vehicle: water) was 205 % of control. For the same compound, the T/C (dose: 1.5 mg/kg/injection, schedule: Q01DX Z (sc), vehicle: other) was 206 % of control and 235 % of control, the T/C (dose: 1.8 mg/kg/injection, schedule: Q01DX Z (ip), vehicle: other) was 185 % of control and the T/C (dose: 1.8 mg/kg/injection, schedule: Q01DX Z (iv), vehicle: other) was 188 % of control and 235 % of control. The T/C (dose: 2.1 mg/kg/injection, schedule: Q01DX Z (oral), vehicle: other) was 190 % of control, the T/C (dose: 2.1 mg/kg/injection, schedule: Q01DX Z (sc), vehicle: other) was 186 % of control and the T/C (dose: 2.17 mg/kg/injection, schedule: Q01DX Z (oral), vehicle: other) was 188 % of control. The T/C (dose: 3.0 mg/kg/injection, schedule: Q01DX009 (sc), vehicle: sodium bicarbonate) was 186 % of control, the T/C (dose: 3.5 mg/kg/injection, schedule: Q01DX Z (oral), vehicle: other) was 195 % of control and the T/C (dose: 5.0 mg/kg/injection, schedule: Q01DX Z (oral), vehicle: other) was 190 % of control. For the same compound, the T/C (dose: 8.0 mg/kg/injection, schedule: Q01DX009 (ip), vehicle: sodium bicarbonate) was 93 % of control.
